# Measurements: publication PMC4336329 (PLoS ONE, 2015)
# About 14,000 (4.5%) of roughly 310,000 compounds showed an effect of 50% or more. Effects have a minus sign here. This is one part of the list.
# Target: human ether-à-go-go-related gene (hERG) potassium channel (human, UniProt Q12809)
# Assay: primary screen, population patch clamp on CHO cells stably expressing hERG
# 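Further: peak tail current of the secondary pulse compared with the same well before compound.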
# Chain of human ether-à-go-go-related gene (hERG) potassium channel (Q12809 whole entry, looked up): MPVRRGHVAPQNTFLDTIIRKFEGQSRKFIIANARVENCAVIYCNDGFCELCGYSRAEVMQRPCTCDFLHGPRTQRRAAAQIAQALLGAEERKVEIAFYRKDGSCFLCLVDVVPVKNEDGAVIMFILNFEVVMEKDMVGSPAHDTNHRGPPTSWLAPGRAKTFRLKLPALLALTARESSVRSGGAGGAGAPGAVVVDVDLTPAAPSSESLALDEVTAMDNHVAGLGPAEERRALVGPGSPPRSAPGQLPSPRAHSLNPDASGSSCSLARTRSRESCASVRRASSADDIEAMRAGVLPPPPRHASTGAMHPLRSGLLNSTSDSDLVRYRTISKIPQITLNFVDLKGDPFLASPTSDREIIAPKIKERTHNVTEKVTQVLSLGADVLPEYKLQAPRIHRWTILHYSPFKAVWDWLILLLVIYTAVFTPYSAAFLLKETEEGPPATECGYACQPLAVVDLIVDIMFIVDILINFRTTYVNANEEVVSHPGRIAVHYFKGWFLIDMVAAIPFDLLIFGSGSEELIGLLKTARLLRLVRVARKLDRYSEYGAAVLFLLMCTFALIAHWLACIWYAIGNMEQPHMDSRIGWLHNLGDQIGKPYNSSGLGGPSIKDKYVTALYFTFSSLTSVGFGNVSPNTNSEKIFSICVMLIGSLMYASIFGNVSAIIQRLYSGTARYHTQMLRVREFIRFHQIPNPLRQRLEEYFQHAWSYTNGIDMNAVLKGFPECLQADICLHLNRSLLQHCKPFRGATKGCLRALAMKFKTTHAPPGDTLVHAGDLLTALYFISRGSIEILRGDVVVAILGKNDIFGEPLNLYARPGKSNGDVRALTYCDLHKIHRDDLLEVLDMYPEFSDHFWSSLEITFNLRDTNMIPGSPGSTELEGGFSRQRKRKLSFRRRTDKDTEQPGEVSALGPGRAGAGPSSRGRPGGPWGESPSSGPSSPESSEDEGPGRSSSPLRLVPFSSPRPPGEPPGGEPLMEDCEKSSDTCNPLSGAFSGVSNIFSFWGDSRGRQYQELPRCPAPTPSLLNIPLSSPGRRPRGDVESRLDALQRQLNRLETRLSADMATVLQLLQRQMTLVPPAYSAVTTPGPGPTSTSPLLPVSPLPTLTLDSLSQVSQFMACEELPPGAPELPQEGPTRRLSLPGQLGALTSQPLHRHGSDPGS
row,Compound,"hERG current change (%, negative = inhibition) at 10uM [%]"
1,O=C(CN1CCN(C2CCCCC2)CC1)c1ccc2cc[nH]c2c1,-35.3
2,Cc1ccc(S(=O)(=O)N(CC(=O)O)c2ccc(Cl)c(C(F)(F)F)c2)cc1,1.44
3,Cc1ccccc1OCc1nnc(SCC(=O)NCc2ccccc2)n1C,-18.1
4,O=C(Nc1nnc(SCCN2CCOCC2)s1)C1CC(=O)N(c2ccc(F)cc2)C1 (stereo not shown),19.3
5,COc1ccc(CCNC(=O)c2ccc3c(=O)n(Cc4ccco4)c(=S)[nH]c3c2)cc1OC,17.2
6,CCCC(C)C(=O)Nc1nc(C)c(-c2csc(Nc3ccc(Cl)cc3)n2)s1 (stereo not shown),12.4
7,Cc1ccc(O)c(N=Cc2ccc(C)s2)c1,19.7
8,O=C(CSc1ncn[nH]1)Nc1nnc(-c2ccccc2)s1,17.3
9,COc1ccc(Cl)cc1NC(=O)C1CCCO1 (stereo not shown),-4.86
10,Cc1ccccc1C(=O)NC1CCN(CC(=O)NCc2ccc(F)cc2)CC1,-44.2
11,Cc1cc(C)c(S(=O)(=O)N2CCOCC2)cc1C,13.1
12,Cc1cc(C)c(C#N)c(SCC(=O)CC(=O)OC(C)C)n1,1.82
13,CCc1cccc(C)c1NC(=S)NCc1cccn1C,-2.94
14,Cl.NCCC(=O)N1c2ccccc2Sc2ccc(Cl)cc21,-10.8
15,CC(Oc1ccc(-c2nnco2)cc1)C(=O)N1CCOCC1 (stereo not shown),18.2
16,CC(=O)Nc1ccc(S(=O)(=O)Nc2ccc(S(=O)(=O)Nc3nccs3)cc2)cc1,14.3
17,Cc1cccc(C)c1NCC(=O)N1CCN(Cc2ccccc2)CC1.Cl,-12.1
18,CCc1ccc(N2C(=O)c3sc4nnc(-c5ccccc5)c(=O)n4c3C2=O)cc1,-33.7
19,CCCC(c1nnnn1Cc1cccs1)N1CCN(c2ccc(OC)cc2)CC1 (stereo not shown),-6.58
20,Cn1c(=O)n(C)c2cc(/C=C3/SC(=O)N(CC(=O)N4CCOCC4)C3=O)ccc21,-11.3
21,O=S(=O)(c1cccc2nonc12)N1CCCCC1,9.19
22,COc1cccc(/C=C/C(=O)OCC(=O)c2ccc(S(=O)(=O)N3CCCCC3)cc2)c1OC,3.54
23,CCC(C)(C)NC(=O)C(c1ccco1)N(C(=O)Cn1nnc2ccccc21)c1ccc2c(c1)OCO2 (stereo not shown),-10.2
24,O=C(c1cccc2ccccc12)C1CCCN(Cc2ccon2)C1 (stereo not shown),-29.3
25,CCCCNC(=O)c1onc(CSc2ccc(C)c(C)c2)c1C(=O)O,2.94
